Data published in ChEMBL document CHEMBL4888484, “Replenishing the malaria drug discovery pipeline: Screening and hit evaluation of the MMV Hit Generation Library 1 (HGL1) against asexual blood stage Plasmodium falciparum ,using a nano luciferase reporter read-out” (2022).
The campaign covered roughly 150,000 compounds. About 540 (0.36%) showed an effect of 50% or more. This is one part of the list.

test system: Plasmodium falciparum; experiment: Primary screen in NF54 nanoGlo assay, in single point, at 2uM, 72h; a lower Z score goes with more inhibition; assay type: functional, Erythrocyte; details: timepoint 72 hour

Compound | % Inhibition [%] | Z score
COc1ccc(CCNC(=O)Nc2c(-c3ccc(OC)cc3)nn(-c3ccc(C(F)(F)F)cc3)c2N)cc1 | -4 | 0.59
O=S(=O)(CC1CCCC1)NCC[C@H]1CCCOC1 | -9 | 1.54
O=C(COc1ccc(F)cc1)N1CC(n2nccn2)C1 | 5 | -0.67
Cc1oncc1C(=O)N1C2C=CCC1CC2 (stereo not drawn) | -4 | 0.51
CC1CN(C(=O)Cc2csc(C(C)C)n2)C(C)CO1 (stereo not drawn) | 4 | -0.6
CCOc1cccc2[nH]cc(CCNC(=O)N3CCC[C@H](OC)C3)c12 | 10 | -1.3
COc1ccccc1CCNC(=O)c1ccc2c(c1)OCCO2 | -14 | 2.04
CCN(CC)c1onc(-c2ccccc2)c1CN(Cc1ccccc1)C(C)=O | 2 | -0.36
CCNC(=O)O[C@@H]1CO[C@H]2[C@@H]1OC[C@@H]2Nc1nccc(-c2ccc(N(C)C)cc2)n1 | -5 | 0.75
CC(C)n1cnnc1C[C@H]1CCN(S(=O)(=O)Cc2ccccc2F)C1 | 0 | 0.07
Cc1cccc(-c2cc3n(n2)CCCN(C(=O)[C@H](C)Oc2ccccc2)C3)c1 | -4 | 0.72
COc1ccccc1N1CCN(c2nc(Nc3ccc(C)cc3C)c3nccnc3n2)CC1 | -9 | 1.59
CC1COC(c2ccccc2)C(C)N1C(=O)CCc1cnn(C)c1 (stereo not drawn) | -11 | 1.03
Cc1noc(-c2cccnc2NCc2ccnc(OC(C)C)c2)n1 | -17 | 1.9
O=C(c1cc(-c2ccccc2)n[nH]1)N1CCC(Oc2ccccn2)CC1 | -7 | 1.34
C[C@@H](c1ncc(C(C)(C)C)o1)n1ccc(C(F)(F)F)n1 | -2 | 0.46
Cc1cc(NC(=O)CCN2CCCN(C)CC2)no1 | -3 | 0.38
CN(Cc1ccccc1)c1ncccc1CNc1cc(C(N)=O)ccn1 | 1 | -0.08
COCCn1cc(NC(=O)C(F)=CC2CCCCC2)cn1 | -34 | 5.1
Cc1cccc(OC(=O)c2cc(-c3ccc(C)c(C)c3)on2)c1 | 25 | -2.87
Cc1nc(C(=O)NC[C@]2(O)CCCC2(C)C)co1 | -1 | 0.09
CN1CCCC[C@H]1C(=O)NCc1csc(-c2ccn(C)n2)n1 | 3 | -0.35
CC1(C)C[C@@H](c2nccn2CCCc2nnn[nH]2)CCO1 | 8 | -1.06
COC(=O)CCN(C(=O)c1cccc(C)c1)c1nc2ccccc2o1 | -16 | 1.47
Cc1cccc(-c2noc(CCN(CC(C)C)C(=O)COCc3ccccc3)n2)c1 | -13 | 1.51
Cc1ccc(C)c([C@H](C)NC(=O)CN2CCCN(c3ccnc(C)c3)CC2)c1 | -12 | 2.13
O=C1CN(C(=O)Cn2cnc3ccc(Cl)cc3c2=O)c2ccccc2N1 | -15 | 2.38

Compound | % Inhibition [%] | Z score
CC(C)NC(=O)[C@@]1(OCc2ccccc2)CC(OCc2ccc(F)cc2F)[C@H](O)[C@H](O)C1 (stereo partly drawn) | 2 | -0.37
Cc1ncsc1-c1ccc(CNC(=O)c2[nH]c(=O)[nH]c2C)cc1 | -13 | 2.01
Cc1nc(-c2ccccc2)c(C(=O)N(C)Cc2snnc2C)s1 | -10 | 1.44
COc1cccc(NC(=O)Nc2ccc(-c3cc4ccccc4[nH]3)cc2)c1 | -6 | 0.98
Nc1nc(CCCNc2nc(-c3ccccc3)no2)cs1 | -9 | 1.2
Cc1cc(C)c2c(c1)-c1c(ssc1=S)C(C)(C)N2C(=O)CN1CCOCC1 | -1 | 0.15
O=C(NCc1cc2n(n1)CCCN(Cc1ccc(Cl)cc1F)C2)C1CCC1 | 1 | -0.13
CCc1ccc(OCC(=O)OCCN2CCCC2=O)cc1 | 3 | -0.49
O=C(CN1CCCC1=O)N1CCN(Cc2ccccc2)CC1 | -6 | 1.03
CC(C)=CCN1CCN(C[C@H](C)O)CC1 | -14 | 1.23
O=C1N[C@@H](C2CC2)C(=O)N[C@H]1CC1CCCCC1 | 6 | -1.09
CN(C)CCN(C)C(=O)Nc1ncccc1OCC1CCCCC1 | 8 | -0.98
O=C(NCCOc1ccccc1Cl)N1CCC(n2cccn2)CC1 | -4 | 0.71
CCc1nc(-c2ccc(-c3noc(-c4cccc(OC)c4OC)n3)cc2)cs1 | 2 | -0.17
N#CCc1ccc(NCc2cc(-c3ccccc3)[nH]n2)cc1 | 4 | -0.51
Cc1cccc(NCCN2C(=O)Cc3ccccc32)n1 | 0 | 0.01
COc1ccc(NC(C)=O)cc1NCc1ccc(C2CC2C)o1 (stereo not drawn) | 3 | -0.39
Cn1cc(S(=O)(=O)N2CCCCC2)cc1C(=O)Nc1ccc2c(c1)OCO2 | -5 | 0.66
OC[C@H]1CCCN(CCNCc2ccc(Cl)s2)C1 | 1 | -0.23
CCC(=O)N1CC(=O)N(c2cccc(OC)c2)C[C@@H]1Cc1ccccc1 | -7 | 0.67
Cc1ccsc1-c1c(-c2ccccc2)ncn1CCN1CCC[C@H](CO)C1 | -13 | 1.26
CC(C)OC1(C(=O)N2CC[C@H](O)[C@@H](C3CCCC3)C2)CCOC1 (stereo partly drawn) | -3 | 0.48
O=C1CN(CCCO)C(=O)CCc2ccc(cc2)Oc2cccc(c2)CO[C@H]2CCN(C(=O)c3ncoc3C3CC3)C[C@@H]2N1 | -5 | 0.88
C[C@H](NC(=O)c1ncoc1C(F)(F)F)c1ccc(F)cc1OC(F)F | -16 | 2.28
CCc1cc(Br)cc2c1N(C(=O)c1cn(C)nn1)CCC2 | 4 | -0.52
CCOC1CC(O)(CNC(=O)c2cc(C)ccc2Br)C1 (stereo not drawn) | 4 | -0.48
C[C@@H](CC#N)N1CCC(C2CCOCC2)CC1 | -7 | 1.01
